The values that follow come from the supplement of paper PMC4723716.

± gives the uncertainty stated by the source. Over roughly 9,900 compounds, “viability index relative to DMSO control” has its median near 1; the lowest 2% begin near 0.85. This is one part of the list.

The test system of this assay is Plasmodium falciparum NF54 stage V gametocytes. Description: viability index relative to DMSO control (fraction); higher = less gametocyte killing. Conditions: 2.5 µM, library set: Broad Institute DOS, incubation time: 72 h. As for the experimental part:
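Broad DOS informer set and blood-stage-active DOS compounds screened in duplicate at 2.5 µM against P. falciparum NF54 stage V gametocytes with the serum-free one-step SaLSSA (1536-well): 72 h at 37 °C under low oxygen, then saponin lysis and MitoTracker Red CMXRos staining, with high-content imaging. Viability index = viable-object count divided by the plate mean of DMSO wells (0 = killed, about 1 = inactive).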
Molecule `Cc1cccc(-c2ccc([C@@H]3[C@H]4CNC[C@@H]3N4C(=O)Nc3ccccc3Cl)cc2)c1` displayed a viability index of 1.15 ± 0.034.
In the case of `CCC(=O)N1C[C@@H]2[C@H](c3ccccc31)[C@H](CO)N2Cc1ccc(F)cc1` it was 1.0589 ± 0.00023.
For `C[C@H](CO)N1C[C@H](C)[C@H](CN(C)C(=O)c2ccc(N3CCN(C)CC3)cc2)OCc2cn(nn2)CCCC1=O` the value was 0.9867 ± 0.0086; for `CO[C@@H]1CN(C)C(=O)c2cc(NC(=O)CN(C)C)ccc2OC[C@@H](C)N(Cc2ccccc2F)C[C@H]1C`, 1.058 ± 0.0065; for `O=C1N[C@H](c2ccccc2)COCc2cn(nn2)CC[C@H]1Cc1cccc(Cl)c1`, 0.963 ± 0.011.
In the case of `CO[C@H]1CN(C)C(=O)c2cc(NS(=O)(=O)c3cn(C)cn3)ccc2OC[C@H](C)NC[C@H]1C` it was 1.07 ± 0.12; in that of `C[C@H](CO)N1C[C@H](C)[C@H](CN(C)C(=O)Nc2ccc(F)cc2)Oc2c(cccc2N(C)C)C1=O`, 0.97 ± 0.16; in that of `O=C1C[C@@H](c2ccccc2)C(=O)N[C@@H](c2ccccc2)C/C=C\C[C@@H](c2ccccc2)N1`, 1.14 ± 0.041.
Consider `Cc1noc(C)c1S(=O)(=O)Nc1ccc2c(c1)C(=O)N([C@H](C)CO)C[C@@H](C)[C@@H](CN(C)C(=O)NC1CCCCC1)O2`, for which the viability index was determined as 1.08 ± 0.091.
`CNC[C@H]1Oc2c(NC(=O)Nc3cccc4ccccc34)cccc2C(=O)N([C@H](C)CO)C[C@@H]1C`: the viability index is 0.953 ± 0.025.
For `O=C(C1CCOCC1)N1CC(=O)N2[C@H](CO)[C@@H](c3ccc(-c4cccnc4)cc3)[C@@H]2C1`, the viability index turned out to be 1.08 ± 0.088.
`COc1cccc(CN2C[C@]3(CCN(CC3)S(C)(=O)=O)c3c([C@@H]2CO)n(C)c2cc(OC)ccc32)c1` yielded a viability index of 0.932 ± 0.14.
For `O=S(=O)(c1ccccc1F)N1CC[C@@H]2[C@@H](CO)Nc3ccc(C4=CCCCC4)cc3[C@@H]21` the value was 1.06 ± 0.094.
Regarding `COc1ccc2c3c([C@H](CO)N(C[C@]33CCN(C)CC3)S(=O)(=O)c3cn(C)cn3)n(C)c2c1`, the viability index is 0.9787 ± 0.0052.
In the case of `CCCC(=O)Nc1ccc2c(c1)OC[C@@H](C)N(CC1CCOCC1)C[C@@H](C)[C@@H](OC)CN(C)C2=O` it was 1.01 ± 0.031.
For `COCc1cn(CC[C@@H]2CC[C@@H](NC(=O)Nc3c(C)noc3C)[C@@H](CO)O2)nn1` the value was 1.04 ± 0.059; for `CC(C)NC(=O)Nc1cccc2c1O[C@H](CN(C)C(=O)Nc1ccccc1)[C@H](C)CN([C@@H](C)CO)C2=O`, 0.692 ± 0.19.
For `COCC(=O)N1CC(=O)N2[C@H](CO)[C@H](c3ccc(-c4ccncc4)cc3)[C@@H]2C1` the value was 1.08 ± 0.061.
Regarding `CCCN(C)C[C@H]1OCCCC[C@@H](C)Oc2ccc(NC(=O)CCCN(C)C)cc2C(=O)N([C@H](C)CO)C[C@@H]1C`, the viability index came out at 1.12 ± 0.18.
As to `O=C(C[C@H]1CC[C@H](NC(=O)C2CCOCC2)[C@H](CO)O1)NCC1CCCCC1`, the viability index turned out to be 1.16 ± 0.098.
In the case of `Cc1ccc(NC(=O)Nc2ccc3c(c2)C(=O)N(C)[C@H]2CC[C@H](CC(=O)NCC(F)(F)F)O[C@@H]2CO3)cc1` it was 1.16 ± 0.065; in that of `CCC(=O)N1[C@@H](CO)[C@@H](c2ccc(C3=CCCC3)cc2)C12CN(C(=O)COC)C2`, 1.0554 ± 0.00028; in that of `COc1ccc2c3c([C@@H](CO)N(CC4CCCC4)C[C@]33CN(C3)C(=O)Nc3ccccc3)n(C)c2c1`, 0.91 ± 0.086.
For the molecule `O=S(=O)(c1cccc(F)c1)N1CC[C@@H]2[C@H]1c1cc(Br)ccc1N[C@@H]2CO`, the viability index is 1.196 ± 0.0051.
For `N#C[C@@H]1N[C@@H](CO)[C@@H]1c1ccc(C#Cc2ccccc2F)cc1` the value was 1.046 ± 0.01; for `Cc1cccc(S(=O)(=O)N2C[C@@H](O)COC[C@@H]3O[C@@H](CC(=O)Nc4ccccc4)CC[C@H]32)c1`, 1.1 ± 0.015; for `CCCNC(=O)N1[C@H](C#N)[C@H](c2ccc(-c3ccccc3F)cc2)[C@H]1CO`, 1.06 ± 0.055.
`Cc1ccccc1-c1ccc([C@@H]2[C@H]3CNC[C@@H]2N3Cc2ccc3c(c2)OCO3)cc1` displayed a viability index of 1.02 ± 0.037.
In the case of `COc1ccc(CN(C)C[C@H]2OCCCC[C@@H](C)Oc3ccc(NC(=O)C4CCCCC4)cc3C(=O)N([C@@H](C)CO)C[C@H]2C)cc1` it was 1.04 ± 0.029.
Regarding `O=C(c1ccccn1)N1C[C@@H]2[C@H](c3ccccc31)[C@@H](CO)N2C(=O)C1CCCCC1`, the viability index came out at 1.03 ± 0.039.
For the molecule `CCCC#Cc1ccc2c(c1)[C@H]1[C@H](CCN1S(=O)(=O)c1cccc(F)c1)[C@H](CO)N2C`, the viability index is 1.079 ± 0.002.
With `CCS(=O)(=O)Nc1ccc2c(c1)C(=O)N(C)[C@@H]1CC[C@@H](CC(=O)NCCCN3CCOCC3)O[C@H]1CO2`, the viability index is 1.07 ± 0.087.
For `CN(C)C(=O)c1ccc(-c2ccccc2[C@@H]2[C@@H](C#N)N(C(=O)C3CC3)[C@H]2CO)cc1` the value was 1.16 ± 0.12.
In the case of `OC[C@H]1[C@H](c2ccc(-c3cccc(F)c3)cc2)[C@@H]2CN(Cc3cncnc3)CCCCN12` it was 1.08 ± 0.1; in that of `C/C=C/c1ccc2n(c1=O)C[C@H]1[C@H](CO)[C@@H](C(=O)NCCCN(C)C)N(Cc3cocn3)[C@@H]21.C/C=C\c1ccc2n(c1=O)C[C@H]1[C@H](CO)[C@@H](C(=O)NCCCN(C)C)N(Cc3cocn3)[C@@H]21`, 1.04 ± 0.013; in that of `C[C@@H]1CN([C@H](C)CO)C(=O)c2cccc(N(C)C)c2O[C@H]1CN(C)Cc1ccncc1`, 1.06 ± 0.022.
For `COc1ccc(CNC(=O)C[C@@H]2CC[C@@H](NC(=O)CN(C)C)[C@@H](CO)O2)cc1` the value was 1.08 ± 0.1; for `COC(=O)[C@@H]1N[C@@H]2c3ccc(C4=CCCCC4)c(=O)n3C[C@@H]2[C@H]1CO`, 0.939 ± 0.038; for `O=C(NC1CCCC1)N1[C@@H]2CNC[C@H]1[C@H]2c1ccc(-c2cccnc2)cc1`, 1.02 ± 0.12.
Take `CN(C)C(=O)c1cccc(-c2ccc3c(c2)[C@@H]2[C@@H](CCN2C(=O)c2cnccn2)[C@@H](CO)N3)c1`: the viability index is 1.12 ± 0.032.
For `CO[C@@H]1CC[C@H]2CCOc3ccc(C#N)cc3C(=O)N(C)[C@H](C)C(=O)N(C)C[C@H]1O2` the value was 0.966 ± 0.051.
In the case of `COc1ccc(S(=O)(=O)N2C[C@@H](O)COC[C@@H]3O[C@@H](CC(=O)N[C@@H]4CCN(Cc5ccccc5)C4)CC[C@H]32)cc1` it was 1.06 ± 0.032; in that of `COC(=O)C[C@@H]1CC[C@H]2[C@@H](COC[C@@H](O)CN2S(=O)(=O)c2ccccc2OC)O1`, 1.02 ± 0.034.
In the case of `O=C(C[C@@H]1CC[C@H]2[C@@H](COC[C@@H](O)CN2C(=O)Nc2ccc(F)cc2)O1)NC1CCC1` it was 1 ± 0.1.
With `C/C=C/c1ccc([C@@H]2[C@@H]3CN(C(=O)NC4CCCCC4)C[C@H]2N3)cc1`, the viability index was determined as 1.06 ± 0.031.
`CO[C@H]1CC[C@@H]2CCN(C)C(=O)[C@H](C)N(C)C(=O)c3cccc(C#N)c3OC[C@H]1O2` showed a viability index of 1.08 ± 0.1.
In the case of `COc1ccc2c3c([C@@H](CO)N(C[C@]33CN(C3)S(=O)(=O)c3cn(C)cn3)C(=O)Nc3ccc(F)cc3)n(C)c2c1` it was 1.067 ± 0.0049.
Molecule `C[C@@H]1CN([C@@H](C)CO)S(=O)(=O)c2ccc(-c3cccc(C#N)c3)cc2O[C@@H]1CN(C)C(=O)c1ccccc1` registered a viability index of 1 ± 0.055.
`O=C(C[C@H]1CC[C@H]2[C@@H](COC[C@H](O)CN2C(=O)c2cnccn2)O1)NCc1ccc(Cl)cc1`: the viability index came out at 0.993 ± 0.057.
In the case of `N#C[C@@H]1[C@@H](c2ccccc2C2=CCCCC2)[C@@H](CO)N1C(=O)CN1CCOCC1` it was 1.12 ± 0.031.
Consider `COc1ccccc1-c1ccccc1[C@@H]1[C@H](C#N)N(C(=O)C2CCOCC2)[C@H]1CO`, for which the viability index stood at 1.11 ± 0.045.
For `COc1ccccc1NC(=O)N[C@@H]1CC[C@@H](CCNS(=O)(=O)c2ccc(Cl)cc2)O[C@H]1CO` the value was 1.12 ± 0.17.
`C[C@@H]1CN([C@H](C)CO)C(=O)c2cc(N(C)C)ccc2O[C@@H](C)CCCCO[C@@H]1CN(C)C(=O)NC1CCCCC1` returned a viability index of 1 ± 0.023.
With `C[C@H](CO)N1C[C@H](C)[C@@H](CN(C)C(=O)c2ccc3ccn(C)c3c2)OCc2cnnn2CCCC1=O`, the viability index came to 0.986 ± 0.043.
Turning to `CO[C@H](CN(C)C(=O)c1cnccn1)[C@H](C)CN([C@@H](C)CO)S(=O)(=O)c1ccccc1`, the viability index was determined as 0.995 ± 0.057.
On to `COc1ccc(NC(=O)N2CC(=O)N3[C@H](CO)[C@@H](c4ccc(Br)cc4)[C@H]3C2)cc1`, for which the viability index turned out to be 0.943 ± 0.082.
For `CN(C)C(=O)C[C@H]1C=C[C@H](NC(=O)c2ccc(F)cc2)[C@@H](CO)O1` the value was 1.1 ± 0.2; for `O=C(C[C@H]1CC[C@H]2[C@@H](COC[C@@H](O)CN2C(=O)c2cnccn2)O1)N1CCN(c2ccccc2)CC1`, 1.02 ± 0.058.
In the case of `Cc1ccccc1S(=O)(=O)Nc1ccc2c(c1)C(=O)N(C)[C@@H]1CC[C@@H](CC(=O)O)O[C@H]1CO2` it was 1.05 ± 0.078; in that of `COc1ccc(C#Cc2ccc3c(c2)[C@@H]2[C@@H](CCN2Cc2nccs2)[C@@H](CO)N3)cc1`, 1.08 ± 0.051; in that of `CS(=O)(=O)N1Cc2cc(C(=O)O)nc(-c3cccc(-c4ccccc4F)c3)c2[C@H]1CCO`, 1.06 ± 0.075.
In the case of `C[C@H]1CN([C@@H](C)CO)C(=O)CCCn2cc(nn2)CO[C@@H]1CN(C)Cc1ccccc1` it was 1.03 ± 0.042.
Take `C[C@@H]1CCCCO[C@H](CN(C)C(=O)CCCN(C)C)[C@H](C)CN([C@@H](C)CO)C(=O)c2cc(NC(=O)Nc3ccc4c(c3)OCO4)ccc2O1`: the viability index amounted to 1.0277 ± 0.00053.
For `CN(C)C(=O)c1ccc(-c2ccccc2[C@@H]2[C@@H](CO)N(C(=O)C3CC3)[C@H]2C#N)cc1` the value was 1.08 ± 0.049; for `CO[C@H]1CN(C)C(=O)c2cc(NC(=O)c3ccc(F)cc3)ccc2OC[C@H](C)N(C(=O)CC2CC2)C[C@@H]1C`, 1.11 ± 0.035; for `CCCNC(=O)Nc1ccc2c(c1)C(=O)N(C)C[C@@H](OC)[C@@H](C)CN(C)[C@H](C)CO2`, 0.9587 ± 0.0028.
For `COc1ccc2c3c([C@H](CO)N(C[C@]33CN(C3)S(=O)(=O)c3ccccc3)C(C)=O)n(C)c2c1` the value was 1.016 ± 0.0073.
For `O=C(CCN1CCCCC1)N[C@@H]1CC[C@H](CCn2cc(-c3cccc(F)c3)nn2)O[C@@H]1CO` the value was 1.05 ± 0.16.
Molecule `N#C[C@H]1[C@@H](c2ccccc2-c2cccc(F)c2)[C@H](CO)N1S(=O)(=O)c1cccc(F)c1` returned a viability index of 1.17 ± 0.1.
For `CO[C@H](CN(C)S(=O)(=O)c1ccc(F)cc1)[C@H](C)CN(Cc1ccccc1Cl)[C@@H](C)CO` the value was 0.978 ± 0.041; for `CN1C(=O)c2cc(NC(=O)Cc3cccs3)ccc2OC[C@@H]2O[C@H](CC(=O)NCC3CCCCC3)CC[C@@H]21`, 1.13 ± 0.062; for `C[C@@H]1CN([C@H](C)CO)C(=O)c2ccccc2-c2ccccc2CO[C@@H]1CN(C)C(=O)[C@H]1CCCN1C`, 0.989 ± 0.11.
